# In the supplement of paper PMC8728848:
# Some of the results follow.
# B1: diCBM40 CPF071 (Clostridium perfringens) (protein)
# chain: MAHHHHHHVGTGSNDDDDKSPDPMLSSLGEYKDINLESSNASNITYDLEKYKNLDEGTIVVRFNSKDSKIQSLLGISNSKTKNGYFNFYVTNSRVGFELRNQKNEGNTQNGTENLVHMYKDVALNDGDNTVALKIEKNKGYKLFLNGKMIKEVKDTNTKFLNNIENLDSAFIGKTNRYGQSNEYNFKGNIGFMNIYNEPLGDDYLLSKTGETKALNGSELGSGSGLSSLGEYKDINLESSNASNITYDLEKYKNLDEGTIVVRFNSKDSKIQSLLGISNSKTKNGYFNFYVTNSRVGFELRNQKNEGNTQNGTENLVHMYKDVALNDGDNTVALKIEKNKGYKLFLNGKMIKEVKDTNTKFLNNIENLDSAFIGKTNRYGQSNEYNFKGNIGFMNIYNEPLGDDYLLSKTGETK
# Legend:
# Assay in all cases: glycan array binding signal (z-score within array); higher = stronger binding
# Conditions in all cases: glycan notation: IUPAC condensed, linker removed
# [1] = target: Fuc(a1-2)Gal(b1-4)GlcNAc(b1-3)Gal(b1-4)GlcNAc(b1-3)Gal(b1-4)GlcNAc
# How it was run: (§1)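 Columns mapping to the same glycan were averaged after glycan names were converted to IUPAC-condensed notation. The data come from 3228 arrays in the Consortium for Functional Glycomics database, limited to those with an available protein sequence. Binding is reported as a within-array Z-score averaged across arrays of one protein sequence and across linkers.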
# [2] = target: Fuc(a1-2)Gal(b1-4)GlcNAc(b1-3)GalNAc
# How it was run: as §1
# [3] = target: Fuc(a1-2)Gal(b1-4)GlcNAc(b1-3)[Fuc(a1-2)Gal(b1-4)GlcNAc(b1-6)]GalNAc
# How it was run: as §1
# [4] = target: Fuc(a1-2)Gal(b1-4)GlcNAc(b1-3)[Fuc(a1-3)[Gal(b1-4)]GlcNAc(b1-6)]Gal(b1-4)Glc
# How it was run: as §1
# [5] = target: Fuc(a1-2)Gal(b1-4)GlcNAc(b1-6)GalNAc
# How it was run: as §1
# [6] = target: Fuc(a1-2)Gal(b1-4)GlcNAc6S
# How it was run: as §1
# [7] = target: Fuc(a1-2)Gal(b1-4)[Fuc(a1-3)]GlcNAc
# How it was run: as §1
# [8] = target: Fuc(a1-2)Gal(b1-4)[Fuc(a1-3)]GlcNAc(b1-2)Man(a1-3)[Fuc(a1-2)Gal(b1-4)[Fuc(a1-3)]GlcNAc(b1-2)Man(a1-6)]Man(b1-4)GlcNAc(b1-4)[Fuc(a1-6)]GlcNAc
# How it was run: as §1
# [9] = target: Fuc(a1-2)Gal(b1-4)[Fuc(a1-3)]GlcNAc(b1-2)[Fuc(a1-2)Gal(b1-4)[Fuc(a1-3)]GlcNAc(b1-4)]Man(a1-3)[Fuc(a1-2)Gal(b1-4)[Fuc(a1-3)]GlcNAc(b1-2)Man(a1-6)]Man(b1-4)GlcNAc(b1-4)GlcNAc
# How it was run: as §1
# [10] = target: Fuc(a1-2)Gal(b1-4)[Fuc(a1-3)]GlcNAc(b1-3)Gal(b1-4)[Fuc(a1-3)]GlcNAc
# How it was run: as §1
# [11] = target: Fuc(a1-2)Gal(b1-4)[Fuc(a1-3)]GlcNAc(b1-3)Gal(b1-4)[Fuc(a1-3)]GlcNAc(b1-3)Gal(b1-4)[Fuc(a1-3)]GlcNAc
# How it was run: as §1
# [12] = target: Fuc(a1-2)Gal(b1-4)[Fuc(a1-3)]GlcNAc(b1-3)GalNAc
# How it was run: as §1
# [13] = target: Fuc(a1-2)Gal(b1-4)[Fuc(a1-3)]GlcNAc(b1-3)[Neu5Ac(a2-6)Gal(b1-4)GlcNAc(b1-6)]Gal(b1-4)Glc
# How it was run: as §1
# [14] = target: Fuc(a1-2)Gal3S(b1-4)GlcNAc
# How it was run: as §1
# [15] = target: Fuc(a1-2)Gal6S(b1-3)GlcNAc
# How it was run: as §1
# [16] = target: Fuc(a1-2)Gal6S(b1-3)GlcNAc6S
# How it was run: as §1
# Fuc(a1-2)Gal6S(b1-4)Glc = target: Fuc(a1-2)Gal6S(b1-4)Glc
# How it was run: as §1
# [17] = target: Fuc(a1-2)Gal6S(b1-4)Glc6S
# How it was run: as §1
# Fuc(a1-2)[Gal(a1-3)]Gal = target: Fuc(a1-2)[Gal(a1-3)]Gal
# How it was run: as §1
# [18] = target: Fuc(a1-2)[Gal(a1-3)]Gal(b1-3)GalNAc
# How it was run: as §1
# [19] = target: Fuc(a1-2)[Gal(a1-3)]Gal(b1-3)GalNAc(b1-3)Gal(a1-4)Gal(b1-4)Glc
# How it was run: as §1
# [20] = target: Fuc(a1-2)[Gal(a1-3)]Gal(b1-3)GlcNAc
# How it was run: as §1
# [21] = target: Fuc(a1-2)[Gal(a1-3)]Gal(b1-3)GlcNAc(b1-2)Man(a1-3)[Fuc(a1-2)[Gal(a1-3)]Gal(b1-3)GlcNAc(b1-2)Man(a1-6)]Man(b1-4)GlcNAc(b1-4)GlcNAc
# How it was run: as §1
# [22] = target: Fuc(a1-2)[Gal(a1-3)]Gal(b1-3)GlcNAc(b1-2)Man(a1-3)[Fuc(a1-2)[Gal(a1-3)]Gal(b1-3)GlcNAc(b1-2)Man(a1-6)]Man(b1-4)GlcNAc(b1-4)[Fuc(a1-6)]GlcNAc
# How it was run: as §1
# [23] = target: Fuc(a1-2)[Gal(a1-3)]Gal(b1-3)GlcNAc(b1-3)GalNAc
# How it was run: as §1
# [24] = target: Fuc(a1-2)[Gal(a1-3)]Gal(b1-3)GlcNAc(b1-6)GalNAc
# How it was run: as §1
# [25] = target: Fuc(a1-2)[Gal(a1-3)]Gal(b1-4)Glc
# How it was run: as §1
# [26] = target: Fuc(a1-2)[Gal(a1-3)]Gal(b1-4)GlcNAc
# How it was run: as §1
# [27] = target: Fuc(a1-2)[Gal(a1-3)]Gal(b1-4)GlcNAc(b1-2)Man
# How it was run: as §1
# [28] = target: Fuc(a1-2)[Gal(a1-3)]Gal(b1-4)GlcNAc(b1-2)Man(a1-3)[Fuc(a1-2)[Gal(a1-3)]Gal(b1-4)GlcNAc(b1-2)Man(a1-6)]Man(b1-4)GlcNAc(b1-4)GlcNAc
# How it was run: as §1
# [29] = target: Fuc(a1-2)[Gal(a1-3)]Gal(b1-4)GlcNAc(b1-2)Man(a1-3)[Fuc(a1-2)[Gal(a1-3)]Gal(b1-4)GlcNAc(b1-2)Man(a1-6)]Man(b1-4)GlcNAc(b1-4)[Fuc(a1-6)]GlcNAc
# How it was run: as §1
# [30] = target: Fuc(a1-2)[Gal(a1-3)]Gal(b1-4)GlcNAc(b1-3)GalNAc
# How it was run: as §1
# [31] = target: Fuc(a1-2)[Gal(a1-3)]Gal(b1-4)GlcNAc(b1-3)[Fuc(a1-2)[Gal(a1-3)]Gal(b1-4)GlcNAc(b1-6)]GalNAc
# How it was run: as §1
# [32] = target: Fuc(a1-2)[Gal(a1-3)]Gal(b1-4)GlcNAc(b1-6)GalNAc
# How it was run: as §1
# [33] = target: Fuc(a1-2)[Gal(a1-3)]Gal(b1-4)[Fuc(a1-3)]Glc
# How it was run: as §1
# [34] = target: Fuc(a1-2)[Gal(a1-3)]Gal(b1-4)[Fuc(a1-3)]GlcNAc
# How it was run: as §1
# [35] = target: Fuc(a1-2)[Gal(a1-3)]Gal(b1-4)[Fuc(a1-3)]GlcNAc(b1-3)GalNAc
# How it was run: as §1
binder,measurement,setting,value
B1,glycan array binding signal (z-score),[1],-0.289
same,glycan array binding signal (z-score),[2],-0.324
same,glycan array binding signal (z-score),[3],-0.266
same,glycan array binding signal (z-score),[4],-0.238
same,glycan array binding signal (z-score),[5],-0.304
same,glycan array binding signal (z-score),[6],-0.335
same,glycan array binding signal (z-score),[7],-0.251
same,glycan array binding signal (z-score),[8],-0.327
same,glycan array binding signal (z-score),[9],-0.316
same,glycan array binding signal (z-score),[10],-0.173
same,glycan array binding signal (z-score),[11],-0.064
same,glycan array binding signal (z-score),[12],0.079
same,glycan array binding signal (z-score),[13],-0.297
same,glycan array binding signal (z-score),[14],-0.323
same,glycan array binding signal (z-score),[15],-0.33
same,glycan array binding signal (z-score),[16],-0.259
same,glycan array binding signal (z-score),Fuc(a1-2)Gal6S(b1-4)Glc,-0.325
same,glycan array binding signal (z-score),[17],-0.296
same,glycan array binding signal (z-score),Fuc(a1-2)[Gal(a1-3)]Gal,-0.249
same,glycan array binding signal (z-score),[18],-0.299
same,glycan array binding signal (z-score),[19],-0.333
same,glycan array binding signal (z-score),[20],-0.329
same,glycan array binding signal (z-score),[21],-0.342
same,glycan array binding signal (z-score),[22],-0.216
same,glycan array binding signal (z-score),[23],-0.354
same,glycan array binding signal (z-score),[24],-0.307
same,glycan array binding signal (z-score),[25],-0.343
same,glycan array binding signal (z-score),[26],-0.341
same,glycan array binding signal (z-score),[27],-0.348
same,glycan array binding signal (z-score),[28],-0.035
same,glycan array binding signal (z-score),[29],-0.321
same,glycan array binding signal (z-score),[30],-0.23
same,glycan array binding signal (z-score),[31],0.192
same,glycan array binding signal (z-score),[32],-0.339
same,glycan array binding signal (z-score),[33],-0.307
same,glycan array binding signal (z-score),[34],-0.317
same,glycan array binding signal (z-score),[35],-0.201
